Measured values from patent US4705777A, “Cationic oligopeptides having microbicidal activity” (priority 1985, dated 1987).

What was measured:
[1] = system: Escherichia coli ATCC 29648; assay: Bactericidal activity of human neutrophil peptides, E. coli ATCC 29648; settings: 50 μg/ml, 2 hour, 10 mM phosphate buffer pH 7.4 with 1% v/v trypticase soy broth
Experimental: (§1) The bactericidal activity of human neutrophil peptides was tested against Staphylococcus aureus 502A, Pseudomonas aeruginosa PA0579, and Escherichia coli ATCC 29648. The organisms were maintained or trypticase soy agar plates and organisms from a single colony were inoculated into 50 ml of trypticase soy broth (Difco, Detroit, Mich.) and cultured overnight at 37° C. One ml of this intermediate culture was diluted with 49 ml of fresh nutrient broth and incubated for an additional 18 h at 37° C. A portion of this stationary phase culture was washed with 10 mM phosphate buffer, pH 7.4, and the concentration of CFU/ml was quantitated by measuring its absorbance at 620 nm with reference to previously determined CFU/ optical density measurements. Incubation mixtures contained 1×10^5 bacterial CFU and 5 μg of HNP1-3 in 100 μl of 10 mM sodium phosphate buffer, pH 7.4. Control mixtures lacked HNP1-3 but contained a small amount of acetic acid (final concentration 0.08 mM), which was used as a vehicle for our HNP stock solutions. This basic incubation mixture was supplemented with various nutrients. Following incubation with HNP1-3 for 2 h at 37° C., timed samples were removed, serially diluted, spread on nutrient agar plates and incubated for 48-74 h to allow full colony development.
The basis incubation medium was 10 mM phosphate buffer, pH 7.4, supplemented with the indicated additions. […]

[2] = system: Staphylococcus aureus 502A; assay: Bactericidal activity of human neutrophil peptides, S. aureus; settings: 50 μg/ml, 2 hour, 10 mM phosphate buffer pH 7.4 with 1% v/v trypticase soy broth
Experimental: as §1
The basic incubation medium was 10 mM phosphate buffer, pH 7.4, supplemented with the indicated additions. […]

| Substance | Decrease (log10 units) in Concentration of Test Organisms Relative to Input, E. coli ATCC 29648 [1] | Decrease (log10 units) in Concentration of Test Organisms Relative to Input, S. aureus 502A [2] |
| --- | --- | --- |
| asp cys tyr cys arg ile pro ala cys ile ala gly glu arg arg tyr gly thr cys ile tyr gln gly arg leu trp ala phe cys cys [HNP-3] | 3.61 log10 units and 3.47 log10 units |  |
| cys tyr cts arg ile pro ala cys ile ala gly glu arg arg tyr gly thr cys ile tyr gln gly arg leu trp ala phe cys cys (CYCRIPACIAGERRYGTCIYQGRLWAFCC; ends and bridges not checked; cysteine pairing not given here; UniProt P59665 66-94, looked up) [HNP-2, human neutrophil peptide HNP-2 (intermediate mobility)] | 3.43 log10 units and 3.60 log10 units |  |
| ala cys tyr cys arg ile pro ala cys ile ala gly glu arg arg tyr gly thr cys ile tyr gln gly arg leu trp ala phe cys cys [HNP-1] |  | 2.14 log10 units and 2.27 log10 units |

Several values for one entry are separate records, joined by “and”; a condition that tells them apart may be missing. Identical values can stand only once. No end group written: not given here.
